In a collection of fitness landscapes (doi:10.1126/science.1257360):
The list shows a part of the results.

B1: PhoQ; a variant is named by its letters at X, in order, P23837 (parent)
chain: MKKLLRLFFPLSLRVRFLLATAAVVLVLSLAYGMVALIGYSVSFDKTTFRLLRGESNLFYTLAKWENNKLHVELPENIDKQSPTMTLIYDENGQLLWAQRDVPWLMKMIQPDWLKSNGFHEIEADVNDTSLLLSGDHSIQQQLQEVREDDDDAEMTHSVAVNVYPATSRMPKLTIVVVDTIPVELKSSYMVWSWFIYVLSANLLLVIPLLWVAAWWSLRPIEALAKEVRELEEHNRELLNPATTRELTSLVRNLNRLLKSERERYDKYRTTLTDLTHSLKTPLXXLQXXLRSLRSEKMSVSDAEPVMLEQISRISQQIGYYLHRASMRGGTLLSRELHPVAPLLDNLTSALNKVYQRKGVNISLDISPEISFVGEQNDFVEVMGNVLDNACKYCLEFVEISARQTDEHLYIVVEDDGPGIPLSKREVIFDRGQRVDTLRPGQGVGLAVAREITEQYEGKIVAGESMLGGARMEVIFGRQHSAPKDE

Variants of: B1
Experiment: enrichment ratio after two sorts for PhoP signalling (ratio (wild type AVST 3.29)); higher = more functional
Settings: with PhoP (E. coli)

Variant | enrichment ratio
PDPG | ≤ 0.25
ILGN | ≤ 0.25
GRWP | ≤ 0.25
TAFH | 2.76
TCHV | 7.71
IWIR | ≤ 0.25
DGCP | ≤ 0.25
GTNA | ≤ 0.25
TFCH | 2.02
KPQW | ≤ 0.25
QFNC | ≤ 0.25
NPCQ | ≤ 0.25
IFMG | ≤ 0.25
ALTT | ≤ 0.25
DYVM | ≤ 0.25
CPRL | ≤ 0.25
TELV | 25.1
ATRQ | ≤ 0.25
GMLS | 0.567
GLSC | 0.624
SWQR | ≤ 0.25
SLGS | 0.404
NTPM | ≤ 0.25
YTFQ | ≤ 0.25

Variant | enrichment ratio
ELSL | ≤ 0.25
VKRS | ≤ 0.25
AWQM | ≤ 0.25
WSWC | ≤ 0.25
TLIA | ≤ 0.25
VNRQ | ≤ 0.25
MNIQ | ≤ 0.25
MTCY | ≤ 0.25
TIGY | 5.33
FKGC | ≤ 0.25
LYSL | ≤ 0.25
SWHS | ≤ 0.25
IDNR | ≤ 0.25
SDMS | 1.69
FGFM | ≤ 0.25
RLSY | ≤ 0.25
HELR | ≤ 0.25
YTFR | ≤ 0.25
QIGQ | ≤ 0.25
PSEF | ≤ 0.25
KDCT | ≤ 0.25
GHME | ≤ 0.25
FEAW | ≤ 0.25
RSKF | ≤ 0.25

Variant | enrichment ratio
GSDL | ≤ 0.25
TRDN | ≤ 0.25
DYCL | ≤ 0.25
IDMF | ≤ 0.25
FGVC | ≤ 0.25
KFYE | ≤ 0.25
DYNW | ≤ 0.25
QFDS | ≤ 0.25
GIRW | ≤ 0.25
YAWW | ≤ 0.25
PSHS | ≤ 0.25
DTGL | ≤ 0.25
VIRH | ≤ 0.25
HFSW | ≤ 0.25
PSPQ | ≤ 0.25
NMLK | 0.982
EFMN | ≤ 0.25
KVWR | ≤ 0.25
TFWF | ≤ 0.25
ETEY | ≤ 0.25
FTPY | ≤ 0.25
PLHM | ≤ 0.25
RAKM | ≤ 0.25
NIPA | ≤ 0.25

Variant | enrichment ratio
EIFR | ≤ 0.25
TQEK | ≤ 0.25
TCDY | ≤ 0.25
FPEH | ≤ 0.25
IQNC | ≤ 0.25
HKMH | ≤ 0.25
IEKV | ≤ 0.25
VGQW | ≤ 0.25
QGHA | ≤ 0.25
VMHH | ≤ 0.25
VWNT | ≤ 0.25
QPPF | ≤ 0.25
EQLL | ≤ 0.25
MLTV | ≤ 0.25
RLEP | ≤ 0.25
QSTY | ≤ 0.25
LGTN | ≤ 0.25
PQTV | ≤ 0.25
DSDV | ≤ 0.25
TKYR | ≤ 0.25
PECN | ≤ 0.25
NKMK | ≤ 0.25
MPYA | ≤ 0.25
CCSV | ≤ 0.25

Variant | enrichment ratio
PSAM | ≤ 0.25
IEGE | ≤ 0.25
GASR | ≤ 0.25
FFSL | ≤ 0.25
GGYI | ≤ 0.25
TEIN | 5.99
AEVN | 10
ETNY | ≤ 0.25
WLCP | ≤ 0.25
DRHC | ≤ 0.25
HKPI | ≤ 0.25
NYFD | ≤ 0.25
SCHA | ≤ 0.25
RIKV | ≤ 0.25
MSPF | ≤ 0.25
MHIR | ≤ 0.25
TENR | 1.26
HYFP | ≤ 0.25
PGQH | ≤ 0.25
WREW | ≤ 0.25
ISWV | ≤ 0.25
IFDS | ≤ 0.25
PHAW | ≤ 0.25
DHET | ≤ 0.25

Variant | enrichment ratio
TLRS | ≤ 0.25
HVFM | ≤ 0.25
WEQF | ≤ 0.25
MAAL | 9.41
FENY | ≤ 0.25
VSSF | ≤ 0.25
LKYS | ≤ 0.25
ADCP | ≤ 0.25
LSRA | ≤ 0.25
SQET | ≤ 0.25
VDID | ≤ 0.25
AMFI | ≤ 0.25
MKFP | ≤ 0.25
IDDG | ≤ 0.25
WCHM | ≤ 0.25
WAMF | ≤ 0.25
PGIA | ≤ 0.25
DKDY | ≤ 0.25
YDES | ≤ 0.25
THME | 49
ITRI | ≤ 0.25
NAIS | ≤ 0.25
MIQI | ≤ 0.25
KNIW | ≤ 0.25

Variant | enrichment ratio
IMEN | ≤ 0.25
ACEF | ≤ 0.25
KAHT | ≤ 0.25
MVSL | 4.63
IEMC | 12.9
QCMS | ≤ 0.25
FDCP | ≤ 0.25
CPRF | ≤ 0.25
RKKR | ≤ 0.25
AGTK | ≤ 0.25
QQKP | ≤ 0.25
HMDN | ≤ 0.25
VLLT | 0.409
VLNC | ≤ 0.25
FYGG | ≤ 0.25
AMYS | ≤ 0.25
FDVD | ≤ 0.25
RKMG | ≤ 0.25
ENGS | ≤ 0.25
LWYD | ≤ 0.25
PPMD | ≤ 0.25
HREI | ≤ 0.25
YLPM | ≤ 0.25
WSHW | ≤ 0.25

Variant | enrichment ratio
WHVN | ≤ 0.25
QEVR | ≤ 0.25
TFSN | 0.566
DDDH | ≤ 0.25
FFVI | ≤ 0.25
THNN | 10.3
NQRD | ≤ 0.25
MCWS | 1.89
HAPY | ≤ 0.25
VEII | ≤ 0.25
TRNS | ≤ 0.25
QWVP | ≤ 0.25
FKMQ | ≤ 0.25
VVND | ≤ 0.25
LDQS | ≤ 0.25
SSAH | 11
PIER | ≤ 0.25
LLSQ | ≤ 0.25
WDQF | ≤ 0.25
FMHY | ≤ 0.25
LQHN | ≤ 0.25
ITKT | ≤ 0.25
LRMA | ≤ 0.25
YDFA | ≤ 0.25

Variant | enrichment ratio
VRGG | ≤ 0.25
DFLQ | ≤ 0.25
IDNI | ≤ 0.25
ASVR | ≤ 0.25
LKMV | ≤ 0.25
NPSV | ≤ 0.25
EYWA | ≤ 0.25
RLFR | ≤ 0.25
PRAH | ≤ 0.25
AMAC | 6.75
FQSL | ≤ 0.25
YGTD | ≤ 0.25
PWCH | ≤ 0.25
KLME | ≤ 0.25
AGVM | 6.21
FYGW | ≤ 0.25
VKWN | ≤ 0.25
MICN | 31.9
MNYH | ≤ 0.25
RRYW | ≤ 0.25
YGAP | ≤ 0.25
QVCK | ≤ 0.25
ARWA | ≤ 0.25
HTIG | ≤ 0.25

Variant | enrichment ratio
SNQW | ≤ 0.25
ETDG | ≤ 0.25
FAIP | ≤ 0.25
YWHK | ≤ 0.25
FYEW | ≤ 0.25
PVTR | ≤ 0.25
NNPK | ≤ 0.25
VFKN | ≤ 0.25
KNRW | ≤ 0.25
PVNR | ≤ 0.25
AQMF | 4.42
KGND | ≤ 0.25
VKGG | ≤ 0.25
WRNK | ≤ 0.25
AKEW | ≤ 0.25
DHFA | ≤ 0.25
SRDR | ≤ 0.25
FAKG | ≤ 0.25
RAGV | ≤ 0.25
DCAR | ≤ 0.25
EEQI | ≤ 0.25
TFKA | ≤ 0.25
GKMR | ≤ 0.25
ANQS | ≤ 0.25

Variant | enrichment ratio
MQNT | ≤ 0.25
TNHF | ≤ 0.25
MHYS | ≤ 0.25
VKFK | ≤ 0.25
PFTH | ≤ 0.25
IFIC | ≤ 0.25
VCYA | ≤ 0.25
YQLF | ≤ 0.25
QMHS | ≤ 0.25
PQEF | ≤ 0.25
MMQI | ≤ 0.25
FYTW | ≤ 0.25
TPLM | ≤ 0.25
GVMT | ≤ 0.25
TWVW | ≤ 0.25
FYIN | ≤ 0.25
REQT | 5.8
HARE | ≤ 0.25
IQEY | ≤ 0.25
MYPN | ≤ 0.25
LGVM | ≤ 0.25
MIHS | 0.755
LLED | ≤ 0.25
NAGI | ≤ 0.25

Variant | enrichment ratio
KYSR | ≤ 0.25
WWEY | ≤ 0.25
QTYV | 3.91
HATS | ≤ 0.25
LFKI | ≤ 0.25
SYLL | 0.392
NRQR | ≤ 0.25
DNAQ | ≤ 0.25
QRRR | ≤ 0.25
SEVH | 17.3
PGWP | ≤ 0.25
FAAK | ≤ 0.25
GVDR | ≤ 0.25
IPLC | ≤ 0.25
SLGG | 2.77
DRPY | ≤ 0.25
AWAI | ≤ 0.25
MVIV | ≤ 0.25
LDLV | ≤ 0.25
YTTK | ≤ 0.25
NQRH | ≤ 0.25
AGMC | 1.24
EYHG | ≤ 0.25
SDHF | 2.09

Variant | enrichment ratio
FKAP | ≤ 0.25
VSQF | ≤ 0.25
NSWQ | ≤ 0.25
SWEI | ≤ 0.25
RMCK | ≤ 0.25
QIDN | ≤ 0.25
HALR | ≤ 0.25
VRCE | ≤ 0.25
YHWS | ≤ 0.25
GKMS | ≤ 0.25
SADK | ≤ 0.25
PRLK | ≤ 0.25
SWRS | ≤ 0.25
KHRE | ≤ 0.25
WQSL | ≤ 0.25
TAEF | ≤ 0.25
KGGD | ≤ 0.25
LVFI | ≤ 0.25
